# The list shows a part of the results.
# Molecular target: T1, OsWOX13 (Oryza sativa, UniProt Q5QMM3 1-267)
# T1 sequence: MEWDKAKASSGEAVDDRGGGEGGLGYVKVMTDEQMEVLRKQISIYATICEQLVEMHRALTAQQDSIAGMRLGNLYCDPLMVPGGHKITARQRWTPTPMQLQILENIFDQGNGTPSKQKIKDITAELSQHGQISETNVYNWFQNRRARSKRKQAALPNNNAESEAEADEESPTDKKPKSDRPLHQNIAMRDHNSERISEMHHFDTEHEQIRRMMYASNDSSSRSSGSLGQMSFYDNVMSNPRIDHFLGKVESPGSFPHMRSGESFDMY
# Assay: protein-binding microarray (RPBM); PBS, 2% BSA, 51.3 ng/ul salmon testes DNA, 50 uM zinc acetate, 200 nM TF, 25 C, 1 h; high values mean tight binding
# Conditions: protein: recombinant; tags: N-terminal polyhistidine and DsRed monomer fusion (pET32a); label: CyDye5-dUTP incorporated in the synthesized complementary strand; 3' TTTTT single-stranded linker to array surface; dsDNA, one strand shown
# In short: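 Transcription factors were made in E. coli BL21-CodonPlus as N-terminal fusions to a polyhistidine tag and DsRed, then purified on Ni–NTA. After primer extension with Cy5-dUTP and blocking with 2% BSA, a custom Agilent array was exposed for 1 h at 25 °C to 200 nM protein in PBS, 2% BSA, salmon testes DNA and 50 µM zinc acetate. Washed arrays were scanned on an Axon 4000B, and the binding signal is per-feature fluorescence intensity in arbitrary units.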
row,Sequence,binding signal
1,ATTCCTAAAATTATATGAATTTATGAGAAATTACGTAATGCGGAGTCACCTAGTGCAG,4300 fluorescence intensity (a.u.)
2,TAAATAATTGCCATTGCCATGCTGCCACGTGTCATGGGACCGGAGTCACCTAGTGCAG,25600 fluorescence intensity (a.u.)
3,GTGTTTGAAACTGACAAATTAAGTTGACGCACATAAAAGACGGAGTCACCTAGTGCAG,3300 fluorescence intensity (a.u.)
4,CCTCAATTAATTTTAGGAGATAGAGAAGATTTGACCAGATCGGAGTCACCTAGTGCAG,38200 fluorescence intensity (a.u.)
5,CTTGTAACAATTATGGTCACCTGAATAGAATTATGCAGTTCGGAGTCACCTAGTGCAG,3550 fluorescence intensity (a.u.)
6,GTGCTATCTGTGTGGGTGATTGATTCATTGGTCAACTCAACGGAGTCACCTAGTGCAG,27600 fluorescence intensity (a.u.)
7,TAATTAAACATGAATTTATATCAGTCAAAGTTTACACTAACGGAGTCACCTAGTGCAG,3510 fluorescence intensity (a.u.)
8,GCGTGACTGCGTGGAGCATCCAACGGTCCAAGATGGTTTGCGGAGTCACCTAGTGCAG,4250 fluorescence intensity (a.u.)
9,TTCAATCAAACTTCCAATTTTAGCTTGAACTACACACACCCGGAGTCACCTAGTGCAG,7520 fluorescence intensity (a.u.)
10,TGCTGAATTAATTGATCAGGTCAAGTCGTTAAAGCAGACACGGAGTCACCTAGTGCAG,31700 fluorescence intensity (a.u.)
11,AATACTCACTGGCTGATTATCACCCATCTTCTTCTGTAATCGGAGTCACCTAGTGCAG,3880 fluorescence intensity (a.u.)
12,GATGTTGATTGTTGGTGTGTAGAATAATGTCTGATATGAACGGAGTCACCTAGTGCAG,30100 fluorescence intensity (a.u.)
13,GTCGATTGTCTGGATTTGTGATGTGATAGAACGTCGGTATCGGAGTCACCTAGTGCAG,11100 fluorescence intensity (a.u.)
14,GACAATTGACACGATCTATCATCTATGGAGTTGGAGAAGCCGGAGTCACCTAGTGCAG,24800 fluorescence intensity (a.u.)
15,GACATGTAATTTCTTTTGACTATGAATCCTGGAGCCAAAACGGAGTCACCTAGTGCAG,5070 fluorescence intensity (a.u.)
16,CTTCTAATTTTGTTAATTGGGAAGACATCATAGAGTGGAACGGAGTCACCTAGTGCAG,65400 fluorescence intensity (a.u.)
17,AACAAACAGATTATGTGTTTTCAGTTCTTAAGTTTAACAACGGAGTCACCTAGTGCAG,5240 fluorescence intensity (a.u.)
18,AATCCAATCACAAGCAGGCTACTATGCATCAAGAGAAAGACGGAGTCACCTAGTGCAG,6980 fluorescence intensity (a.u.)
19,GTTTCAAATTATGAAATCTTAATGTTCCCTGTGTGAGAGTCGGAGTCACCTAGTGCAG,6340 fluorescence intensity (a.u.)
20,AAACCCTTAATTGCTCATGATTTTGCCATTATAATATAGGCGGAGTCACCTAGTGCAG,44600 fluorescence intensity (a.u.)
21,ACTAAATAGATGAATTCATAAATATGAAAATTTTCCGACCCGGAGTCACCTAGTGCAG,39800 fluorescence intensity (a.u.)

row,Sequence,binding signal
1,GTCTAATTTAATGTTCAACCGATCGAGGCACACACACACTCGGAGTCACCTAGTGCAG,11200 fluorescence intensity (a.u.)
2,TCTCATCCTAATTAAATTTACCATTTAACACTATGGGTTACGGAGTCACCTAGTGCAG,19700 fluorescence intensity (a.u.)
3,GGGTCAGTTGATTGGTCGAGTTGAGGATGGCGGTGTTATACGGAGTCACCTAGTGCAG,7070 fluorescence intensity (a.u.)
4,TTTGGGAATTAATTGGGAGACTTCTGCTGTTCTTGGTTGCCGGAGTCACCTAGTGCAG,27000 fluorescence intensity (a.u.)
5,CTTTACAATTAATACATGTTCCACTTGTCTCTCTCACAGACGGAGTCACCTAGTGCAG,4970 fluorescence intensity (a.u.)
6,GATTCAAATTTGAATTTGAATTATATCTGATTCAAATTTGCGGAGTCACCTAGTGCAG,3940 fluorescence intensity (a.u.)
7,ACTTGCCTAAATTAGAGAGAAATCACGATGACCAAAACGGCGGAGTCACCTAGTGCAG,4790 fluorescence intensity (a.u.)
8,CTCATGATTATTAGCTACTCCACAGCGTTAGCTTCGTCCACGGAGTCACCTAGTGCAG,14700 fluorescence intensity (a.u.)
9,AAATAAATCAACTTCTACCTTGTTGCCTACCCTTATTCGCCGGAGTCACCTAGTGCAG,3190 fluorescence intensity (a.u.)
10,ATCTTTGATTTGTCCTAAATTTGTGATGGGGATGTCACCGCGGAGTCACCTAGTGCAG,50700 fluorescence intensity (a.u.)
11,TAGAATTAATTAAAATTCGAAAAGAAATTGACAAACACTACGGAGTCACCTAGTGCAG,21700 fluorescence intensity (a.u.)
12,GTTACCTATTAATTAATAGGAAGATGATATAAATAGTTTACGGAGTCACCTAGTGCAG,19400 fluorescence intensity (a.u.)
13,ATCCTTAATTAGTACGGAGTATGTTCTTATTATTCTAATTCGGAGTCACCTAGTGCAG,14600 fluorescence intensity (a.u.)
14,TTGTTAAAATTGTACAATTTTATTATAATGACCAAAATACCGGAGTCACCTAGTGCAG,3870 fluorescence intensity (a.u.)
15,ACTTGATCATACGAGTCAGTGTAGGATTTGATTGGTTGCACGGAGTCACCTAGTGCAG,9660 fluorescence intensity (a.u.)
16,GTCTCGATATAATTATGAATTTTGAAATATATAAACCCATCGGAGTCACCTAGTGCAG,8250 fluorescence intensity (a.u.)
17,GTAAATTTTGAACAGTAAATGATACTGTTGGATTATTCTCCGGAGTCACCTAGTGCAG,7930 fluorescence intensity (a.u.)
18,GTTGGTGTCAATTGATTTCCAAGTATAAACTTATAACTTTCGGAGTCACCTAGTGCAG,4100 fluorescence intensity (a.u.)
19,CAGAAAATGAAAATAAATATCCTAATAGTGTGAGCAGCTGCGGAGTCACCTAGTGCAG,3270 fluorescence intensity (a.u.)
20,CTATCAATTATACGTGACGAAACATTGAGATATATGTATTCGGAGTCACCTAGTGCAG,7060 fluorescence intensity (a.u.)
21,ATAAAATTTTGGTTAGTGCGAACTTGTCTTCTGCTTATGTCGGAGTCACCTAGTGCAG,3190 fluorescence intensity (a.u.)
